Results reported in ChEMBL document CHEMBL5308541, “MAIP: An Open-Source Tool to Enrich High-Throughput Screening Output and Identify Novel, Druglike Molecules with Antimalarial Activity” (ACS Med Chem Lett, 2023).
The campaign covered roughly 150,000 compounds. About 540 (0.36%) showed an effect of 50% or more. Some of the results follow.

Each molecule was assayed on Plasmodium falciparum (assay: Primary screen in NF54 nanoGlo assay, in single point, at 2uM, 72h; a lower Z score goes with more inhibition). Conditions: timepoint 72 hour.
Assay type: functional, Erythrocyte

Going from `CN1CCC[C@H](c2cc(NCCc3nc(-c4cccnc4)no3)ncn2)C1` to `CCc1nc(NCc2nc(-c3ccncc3)no2)c2ccsc2n1`, the “% Inhibition” value falls from 1% to -13%.

Going from `Cc1cc(C(F)(F)F)nc(NCC2(CO)CCC2)n1` to `FC(F)(F)c1cc(NCCc2nnc3ccccn23)c2ccccc2n1`, the “% Inhibition” value falls from 8% to -5%.

Going from `c1cc(CNc2ncnc3[nH]ccc23)ccn1` to `Fc1cc(-c2ncnc3[nH]ccc23)ccc1OCc1ccccc1`, the “% Inhibition” value rises from -1% to 9%.

First: C[C@@H](CCNc1ccc2cccc(Cl)c2n1)N1CCN(C)CC1
Second: CN1CCN(CC2CCN(c3ccnc4ccccc34)CC2)CC1
The “% Inhibition” value of the first is lower: -1% for the first, 98% for the second.

Compared with `CN(C)C1CCC(NC(=O)N2CCC(c3nccc(-c4cccc(F)c4)n3)CC2)C1` (centres undefined), `CC(=O)N[C@H]1CCN(C(=O)c2cccc(-c3ccc4c[nH]nc4c3)c2)C1` is lower in “% Inhibition” value: 5% for the first, -9% for the second.

First: CN(C[C@H]1CCCN(CCN2CCN(C(=O)OC(C)(C)C)CC2)C1)C(=O)OC(C)(C)C
Second: CCN1CCN(CCOc2ccc(CN3CCC[C@@]4(CCNC4)C3)cc2)CC1
The “% Inhibition” value of the first is lower: -3% for the first, 1% for the second.

Going from `COc1ccc(-c2cc3c(=O)n(Cc4cccc(C#N)c4)ccn3n2)cc1OC` to `COc1ccccc1-c1cc(CNc2nc3ccc(F)cc3n2C)on1`, the “% Inhibition” value falls from 11% to -4%.

Compared with `Cc1cc(N[C@@H](C)CCCC(C)(C)O)nc2cc(Cl)ccc12`, `Cc1cc(-c2cccc(C(=O)N[C@@H](C)CN3CCCC3)c2)c(Cl)cc1F` is higher in “% Inhibition” value: -8% for the first, 0% for the second.

First: Cc1ccc2c(c1)OCCN2C(=O)CCOCC(F)(F)C(F)F
Second: Cc1c(C(=O)NCC2(N(C)C)CCOCC2)[nH]c2ccc(Cl)cc12
The “% Inhibition” value of the first is lower: -4% for the first, -3% for the second.

Going from `COc1ccc(-c2nc3c([nH]2)CCN(C(=O)c2ccn4nnnc4c2)C3)cc1` to `Cn1cccc1-c1cc(C(=O)N2CCc3c([nH]c4ccccc34)[C@H]2c2ccccc2F)[nH]n1`, the “% Inhibition” value falls from 2% to -3%.

Compared with `O=C(Nc1cccc2[nH]ccc12)N1CC2(CC2)c2ccccc21`, `O=C(c1c[nH]c2ccccc2c1=O)N1CC2(CCCC2)c2ccccc21` is lower in “% Inhibition” value: -3% for the first, -6% for the second.

Compared with `CCc1c[nH]c2ncnc(N3CCN(Cc4cccc(O)c4)CC3)c12`, `Cc1[nH]c2ccc(Cl)cc2c1C(=O)N[C@@H](C)CN1CCN(c2ccccn2)CC1` is higher in “% Inhibition” value: -1% for the first, 7% for the second.

First: O=C(NCCn1ccc2ccc(F)cc21)c1ccc(Nc2ncccn2)cc1
Second: CCNc1cc(N[C@H]2CC[C@H](O)CC2)nc(Nc2ccc3c(ccn3Cc3ccccc3)c2)n1
The “% Inhibition” value of the first is lower: -3% for the first, 0% for the second.

First: CC(Nc1nc(N)c2ccccc2n1)C(O)Cc1ccccc1 (centres undefined)
Second: CC(C)(CNc1ccc(-n2ccnc2)nc1)c1ccccc1
The “% Inhibition” value of the first is higher: 1% for the first, -2% for the second.

Compared with `Oc1ccccc1CCNC1CCN(CC2CC2)CC1`, `Nc1nc2c(c(NC3CCN(Cc4ccccn4)CC3)n1)CCNC2` is lower in “% Inhibition” value: 10% for the first, -1% for the second.

Compared with `OC[C@H]1CN(c2ccncn2)CC12CCN(Cc1c[nH]c3ccccc13)CC2`, `Cc1ccc(-c2nc(CN3CCC(C(=O)N4CCC(C)(c5noc(-c6cccnc6)n5)CC4)CC3)c(C)o2)cc1` is higher in “% Inhibition” value: -8% for the first, 6% for the second.

`CCN1CCC[C@H](c2nccn2-c2ccc3c[nH]nc3c2)C1` and `Cc1ccc2oc(NC3CCN(c4cc(C)nc(C)n4)CC3)nc2c1` are the same in “% Inhibition” value: -6% for the first, -6% for the second.

Going from `CC1CN(CC2CN(C)CCO2)CCN1Cc1cnc(N)nc1N` (centres undefined) to `O=C(c1cnc2c(F)cccc2c1O)N1CCCO[C@@H](CN2CCCC2)C1`, the “% Inhibition” value falls from 2% to -13%.

Going from `O=C(c1c(N2CCOCC2)noc1-c1ccccc1)N1CC2CCC(C1)NC2` (centres undefined) to `Cc1c[nH]c(-c2c(-c3ccccc3)ncn2CCCN(CCO)CCO)n1`, the “% Inhibition” value rises from -11% to 3%.

First: COc1ccc(CCN2CCC(CN(C)Cc3nc(-c4cccs4)oc3C)CC2)cc1
Second: Cc1nc(CCNC(=O)C2(c3cccnc3)CCCC2)c(C)o1
The “% Inhibition” value of the first is lower: -9% for the first, -2% for the second.

Compared with `Clc1ccc2oc(Nc3ccc4c(c3)Cc3ccccc3-4)nc2c1`, `Nc1noc(CCNc2nccc(Oc3ccc(F)cc3)n2)n1` is lower in “% Inhibition” value: 3% for the first, -10% for the second.

Compared with `CN1CCC[C@H](c2cc(NCCc3nc(-c4cccnc4)no3)ncn2)C1`, `CCc1nc(NCc2nc(-c3ccncc3)no2)c2ccsc2n1` is higher in Z score: -0.26 for the first, 2.25 for the second.

Going from `Cc1cc(C(F)(F)F)nc(NCC2(CO)CCC2)n1` to `FC(F)(F)c1cc(NCCc2nnc3ccccn23)c2ccccc2n1`, the Z score rises from -1.8 to 0.8.

Going from `c1cc(CNc2ncnc3[nH]ccc23)ccn1` to `Fc1cc(-c2ncnc3[nH]ccc23)ccc1OCc1ccccc1`, the Z score falls from 0.16 to -2.03.

First: C[C@@H](CCNc1ccc2cccc(Cl)c2n1)N1CCN(C)CC1
Second: CN1CCN(CC2CCN(c3ccnc4ccccc34)CC2)CC1
The Z score of the first is higher: 0.13 for the first, -16.96 for the second.

Compared with `CN(C)C1CCC(NC(=O)N2CCC(c3nccc(-c4cccc(F)c4)n3)CC2)C1` (centres undefined), `CC(=O)N[C@H]1CCN(C(=O)c2cccc(-c3ccc4c[nH]nc4c3)c2)C1` is higher in Z score: -0.84 for the first, 1.93 for the second.

First: CN(C[C@H]1CCCN(CCN2CCN(C(=O)OC(C)(C)C)CC2)C1)C(=O)OC(C)(C)C
Second: CCN1CCN(CCOc2ccc(CN3CCC[C@@]4(CCNC4)C3)cc2)CC1
The Z score of the first is higher: 0.63 for the first, -0.14 for the second.

Going from `COc1ccc(-c2cc3c(=O)n(Cc4cccc(C#N)c4)ccn3n2)cc1OC` to `COc1ccccc1-c1cc(CNc2nc3ccc(F)cc3n2C)on1`, the Z score rises from -1.91 to 0.76.

Compared with `Cc1cc(N[C@@H](C)CCCC(C)(C)O)nc2cc(Cl)ccc12`, `Cc1cc(-c2cccc(C(=O)N[C@@H](C)CN3CCCC3)c2)c(Cl)cc1F` is lower in Z score: 1.4 for the first, 0.01 for the second.

Compared with `Cc1ccc2c(c1)OCCN2C(=O)CCOCC(F)(F)C(F)F`, `Cc1c(C(=O)NCC2(N(C)C)CCOCC2)[nH]c2ccc(Cl)cc12` is lower in Z score: 0.77 for the first, 0.55 for the second.

Compared with `COc1ccc(-c2nc3c([nH]2)CCN(C(=O)c2ccn4nnnc4c2)C3)cc1`, `Cn1cccc1-c1cc(C(=O)N2CCc3c([nH]c4ccccc34)[C@H]2c2ccccc2F)[nH]n1` is higher in Z score: -0.31 for the first, 0.48 for the second.

Going from `O=C(Nc1cccc2[nH]ccc12)N1CC2(CC2)c2ccccc21` to `O=C(c1c[nH]c2ccccc2c1=O)N1CC2(CCCC2)c2ccccc21`, the Z score rises from 0.56 to 0.91.

Going from `CCc1c[nH]c2ncnc(N3CCN(Cc4cccc(O)c4)CC3)c12` to `Cc1[nH]c2ccc(Cl)cc2c1C(=O)N[C@@H](C)CN1CCN(c2ccccn2)CC1`, the Z score falls from 0.18 to -1.26.

Going from `O=C(NCCn1ccc2ccc(F)cc21)c1ccc(Nc2ncccn2)cc1` to `CCNc1cc(N[C@H]2CC[C@H](O)CC2)nc(Nc2ccc3c(ccn3Cc3ccccc3)c2)n1`, the Z score falls from 0.45 to -0.02.

First: CC(Nc1nc(N)c2ccccc2n1)C(O)Cc1ccccc1 (centres undefined)
Second: CC(C)(CNc1ccc(-n2ccnc2)nc1)c1ccccc1
The Z score of the first is lower: -0.29 for the first, 0.42 for the second.

First: Oc1ccccc1CCNC1CCN(CC2CC2)CC1
Second: Nc1nc2c(c(NC3CCN(Cc4ccccn4)CC3)n1)CCNC2
The Z score of the first is lower: -1.72 for the first, 0.26 for the second.

Going from `OC[C@H]1CN(c2ccncn2)CC12CCN(Cc1c[nH]c3ccccc13)CC2` to `Cc1ccc(-c2nc(CN3CCC(C(=O)N4CCC(C)(c5noc(-c6cccnc6)n5)CC4)CC3)c(C)o2)cc1`, the Z score falls from 1.42 to -1.16.

First: CCN1CCC[C@H](c2nccn2-c2ccc3c[nH]nc3c2)C1
Second: Cc1ccc2oc(NC3CCN(c4cc(C)nc(C)n4)CC3)nc2c1
The Z score of the first is lower: 0.87 for the first, 1.19 for the second.

Going from `CC1CN(CC2CN(C)CCO2)CCN1Cc1cnc(N)nc1N` (centres undefined) to `O=C(c1cnc2c(F)cccc2c1O)N1CCCO[C@@H](CN2CCCC2)C1`, the Z score rises from -0.33 to 1.93.

Going from `O=C(c1c(N2CCOCC2)noc1-c1ccccc1)N1CC2CCC(C1)NC2` (centres undefined) to `Cc1c[nH]c(-c2c(-c3ccccc3)ncn2CCCN(CCO)CCO)n1`, the Z score falls from 1.87 to -0.55.

First: COc1ccc(CCN2CCC(CN(C)Cc3nc(-c4cccs4)oc3C)CC2)cc1
Second: Cc1nc(CCNC(=O)C2(c3cccnc3)CCCC2)c(C)o1
The Z score of the first is higher: 1.62 for the first, 0.41 for the second.

First: Clc1ccc2oc(Nc3ccc4c(c3)Cc3ccccc3-4)nc2c1
Second: Nc1noc(CCNc2nccc(Oc3ccc(F)cc3)n2)n1
The Z score of the first is lower: -0.57 for the first, 1.98 for the second.
